“And” between values parts separate entries of the source, which are not always exact repeats. Equal values may be shown once. The inconclusive results got no clear call from the source; some entries with a clear call stand among them for comparison. Potencies of inconclusive entries are doubtful fits and often do not repeat. The source made the active and inactive calls. Unless noted, calls come from the whole dose curve; as a rule, active = well fitted curve in the direction sought with a large enough effect in the repeat runs; inconclusive = weak or mixed curves; inactive = no such curve, though single readings can be large; an effect the other way counts as inactive or inconclusive.
Key:
[1] = target: Aryl hydrocarbon receptor (Homo sapiens) (UniProt P35869); experiment: qHTS assay to identify small molecule that activate the aryl hydrocarbon receptor (AhR) signaling pathway (AID 743085); note: nearly all actives have a fitted effect of over 15% in size
UniProt P35869, sequence (P35869 whole entry, looked up): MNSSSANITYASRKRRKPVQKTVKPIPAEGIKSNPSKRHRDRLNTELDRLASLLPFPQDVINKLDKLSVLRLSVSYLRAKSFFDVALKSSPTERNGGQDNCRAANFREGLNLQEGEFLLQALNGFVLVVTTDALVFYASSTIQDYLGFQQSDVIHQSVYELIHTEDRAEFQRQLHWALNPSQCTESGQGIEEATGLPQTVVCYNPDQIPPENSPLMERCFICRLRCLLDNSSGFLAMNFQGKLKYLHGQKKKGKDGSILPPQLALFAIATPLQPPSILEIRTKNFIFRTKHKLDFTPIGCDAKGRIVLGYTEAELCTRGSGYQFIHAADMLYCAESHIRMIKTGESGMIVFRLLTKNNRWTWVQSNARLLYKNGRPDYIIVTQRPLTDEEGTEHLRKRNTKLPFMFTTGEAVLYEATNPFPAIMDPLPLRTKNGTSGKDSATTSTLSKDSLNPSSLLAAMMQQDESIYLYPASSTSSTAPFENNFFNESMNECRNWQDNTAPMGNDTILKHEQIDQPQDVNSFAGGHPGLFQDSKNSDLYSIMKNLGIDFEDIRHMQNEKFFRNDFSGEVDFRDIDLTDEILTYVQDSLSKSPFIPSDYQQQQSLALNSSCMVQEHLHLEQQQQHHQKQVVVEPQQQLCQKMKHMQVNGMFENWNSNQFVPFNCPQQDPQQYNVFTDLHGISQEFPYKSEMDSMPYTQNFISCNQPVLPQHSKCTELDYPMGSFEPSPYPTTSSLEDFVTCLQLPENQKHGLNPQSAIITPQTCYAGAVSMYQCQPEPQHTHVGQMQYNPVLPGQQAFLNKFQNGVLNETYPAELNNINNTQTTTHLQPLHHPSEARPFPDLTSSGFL
Outline: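 Luminescence (ONE-Glo) from a dioxin-responsive-element luciferase reporter in HG2L7.5c1 HepG2 cells after 24 hr compound exposure at 37C; viability measured by CellTiter-Fluor fluorescence beforehand.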

[2] = qHTS assay to identify small molecule that activate the aryl hydrocarbon receptor (AhR) signaling pathway - cell viability counter screen (AID 743086); note: nearly all actives have a fitted effect of over 45% in size
Outline: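 HepG2-AhR-luc (HG2L7.5c1) cells, 4000/well, treated 24 h at 37 C with compound; viability measured as CellTiter-Fluor fluorescence after 30 min in the same wells as the luciferase read.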

[3] = target: Peroxisome proliferator-activated receptor gamma (Homo sapiens) (UniProt P37231); experiment: qHTS assay to identify small molecule agonists of the peroxisome proliferator-activated receptor gamma (PPARg) signaling pathway (AID 743094; active = well fitted activation curve with a large enough effect in the signal ratio in the repeat runs, not every such curve was filed as active; inconclusive = weak or mixed curves, or effect the other way; inactive = no such curve, though single readings can be large or run the other way; the % refers to the signal ratio; for activation: % is set by controls: 0 for no effect and ±100 for the full control effect); conditions: HEK293H PPARg-UAS-bla, beta-lactamase FRET ratio, 17 h; activation: at 57 µM (top of the series) unless noted
UniProt P37231, sequence (P37231 whole entry, looked up): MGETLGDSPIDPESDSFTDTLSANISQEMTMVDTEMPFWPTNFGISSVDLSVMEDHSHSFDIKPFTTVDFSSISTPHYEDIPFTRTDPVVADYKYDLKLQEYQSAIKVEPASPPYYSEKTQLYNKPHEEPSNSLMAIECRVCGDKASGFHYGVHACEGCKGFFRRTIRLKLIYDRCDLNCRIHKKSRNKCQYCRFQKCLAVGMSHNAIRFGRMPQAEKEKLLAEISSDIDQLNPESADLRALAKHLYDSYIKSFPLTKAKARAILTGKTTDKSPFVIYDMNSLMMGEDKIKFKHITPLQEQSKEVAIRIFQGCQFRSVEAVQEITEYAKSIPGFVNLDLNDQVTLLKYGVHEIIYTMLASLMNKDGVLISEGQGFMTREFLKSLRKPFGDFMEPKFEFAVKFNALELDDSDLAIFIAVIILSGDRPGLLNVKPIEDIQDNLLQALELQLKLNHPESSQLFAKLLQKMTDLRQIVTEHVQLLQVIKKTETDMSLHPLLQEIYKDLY
Outline: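 GeneBLAzer PPARg UAS-bla HEK293H cells carrying a stably integrated beta-lactamase reporter were pre-incubated 5 h at 37C, then exposed to compounds in DMSO for 17 h at 37C; LiveBLAzer B/G FRET substrate was added for 1 h at room temperature and fluorescence read.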

[4] = target: Peroxisome proliferator-activated receptor gamma (Homo sapiens) (UniProt P37231); experiment: qHTS assay to identify small molecule antagonists of the peroxisome proliferator-activated receptor gamma (PPARg) signaling pathway (AID 743191; calls by dose curve; note: nearly all actives have a fitted effect of over 30% in size); conditions: HEK293H PPARg-UAS-bla, beta-lactamase ratio, antagonist, 17 h; ratio activity, negative = inhibition: at 62.6 µM (top of the series) unless noted
Outline: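 GeneBLAzer PPARg UAS-bla HEK293H cells, 5 h post-plating, exposed to compounds 17 h at 37C. LiveBLAzer B/G FRET substrate added for 1 h at room temperature; beta-lactamase reporter read by fluorescence intensity.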

[5] = qHTS assay to identify small molecule antagonists of the peroxisome proliferator-activated receptor gamma (PPARg) signaling pathway - cell viability counter screen (AID 743194); conditions: PPARg-bla HEK293H viability, CellTiter-Glo luminescence, 17 h, co-treated with 50 nM rosiglitazone; activity change, negative = cytotoxicity: at 62.6 µM (top of the series) unless noted; note: nearly all actives have a fitted effect of over 55% in size; for activity change, negative = cytotoxicity: % is set by controls: 0 for no effect and ±100 for the full control effect
Outline: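 Cytotoxicity counter screen in PPARg-bla HEK293H cells, same wells as reporter assay. Compounds plus 50 nM rosiglitazone (final) for 17 h at 37 C, then viability read by CellTiter-Glo luminescence.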

[6] = qHTS assay for small molecule agonists of the antioxidant response element (ARE) signaling pathway (AID 743202; active = well fitted activation curve with a large enough effect in the signal ratio in the repeat runs, not every such curve was filed as active; inconclusive = weak or mixed curves, or effect the other way; inactive = no such curve, though single readings can be large or run the other way; the % refers to the signal ratio); conditions: HepG2 ARE-bla reporter, beta-lactamase FRET, 16 h; activation: at 73.3 µM (top of the series) unless noted
Outline: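 Agonist mode reporter screen: HepG2 cells with ARE-controlled beta-lactamase are incubated with test compounds for 16 h at 37 C, and beta-lactamase activity is measured as fluorescence of cleaved B/G FRET substrate.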

[7] = qHTS assay for small molecule agonists of the antioxidant response element (ARE) signaling pathway - cell viability counter screen (AID 743203; calls by dose curve; note: nearly all actives have a fitted effect of over 55% in size); conditions: ARE-bla HepG2 viability, CellTiter-Glo luminescence, 16 h; viability change, negative = cytotoxic: at 73.3 µM (top of the series)
Outline: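 CellSensor ARE-bla HepG2 cells, 2,000 per well, rested 5 hrs at 37C/5% CO2, then exposed to compound in DMSO for 16 hrs; viability read as CellTiter-Glo luminescence after 30 min at room temperature, in the reporter wells.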

[8] = qHTS assay for small molecule activators of the heat shock response signaling pathway - cell viability counter screen (AID 743209); conditions: HSE-bla HeLa viability, CellTiter-Glo luminescence, 5 h; activity change, negative = cytotoxicity: at 62.6 µM (top of the series) unless noted; note: nearly all actives have a fitted effect of over 50% in size
Outline: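 CellSensor HSE-bla HeLa cells, plated overnight at 37 C/5% CO2, were exposed to compounds in DMSO for 5 h at 37 C. Viability was then read in the same wells by CellTiter-Glo luminescence after 30 min at room temperature.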

[9] = target: Peroxisome proliferator-activated receptor delta (Homo sapiens) (UniProt Q03181); experiment: qHTS assay to identify small molecule agonists of the peroxisome proliferator-activated receptor delta (PPARd) signaling pathway (AID 743212; calls by dose curve; for activation: % is set by controls: 0 for no effect and ±100 for the full control effect); conditions: HEK293H PPARd-UAS-bla, beta-lactamase FRET ratio, 17 h; activation: at 62.6 µM (top of the series) unless noted
UniProt Q03181, sequence (Q03181 whole entry, looked up): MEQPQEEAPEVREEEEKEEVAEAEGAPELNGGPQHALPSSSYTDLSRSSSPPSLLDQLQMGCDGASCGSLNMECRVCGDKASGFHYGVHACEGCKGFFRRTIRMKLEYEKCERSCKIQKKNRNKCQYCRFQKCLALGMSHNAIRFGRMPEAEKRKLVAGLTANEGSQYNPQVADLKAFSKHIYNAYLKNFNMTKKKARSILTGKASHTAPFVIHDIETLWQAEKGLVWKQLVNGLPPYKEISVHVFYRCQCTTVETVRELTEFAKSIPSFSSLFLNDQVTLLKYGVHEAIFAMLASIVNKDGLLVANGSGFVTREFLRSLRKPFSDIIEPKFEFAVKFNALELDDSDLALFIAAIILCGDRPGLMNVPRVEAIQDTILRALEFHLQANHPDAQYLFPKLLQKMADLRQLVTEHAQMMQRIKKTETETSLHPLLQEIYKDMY
Outline: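 Quantitative high-throughput agonist screen in a HEK293H beta-lactamase reporter line under UAS control. Compounds in DMSO, at 37 C. Fluorescence read after 2 h with FRET substrate at room temperature.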

[10] = target: Peroxisome proliferator-activated receptor delta (Homo sapiens) (UniProt Q03181); experiment: qHTS assay to identify small molecule antagonists of the peroxisome proliferator-activated receptor delta (PPARd) signaling pathway (AID 743215; active = well fitted inhibition curve with a large enough effect in the signal ratio in the repeat runs, not every such curve was filed as active; inconclusive = weak or mixed curves, or effect the other way; inactive = no such curve, though single readings can be large or run the other way; the % refers to the signal ratio;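 note: cells stimulated with agonist L165041 at 300 nM final during compound exposure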); conditions: HEK293H PPARd-UAS-bla, beta-lactamase FRET ratio, antagonist, 17 h; ratio activity, negative = inhibition: at 62 µM (top of the series) unless noted
Outline: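 PPARd UAS-bla HEK293H cells were pre-incubated 5 h at 37 C, then given test compounds in DMSO plus agonist L165041 (300 nM final). After 17 h at 37 C, beta-lactamase FRET substrate was added; fluorescence read after 2 h at room temperature.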

[11] = target: Bile acid receptor (Homo sapiens) (UniProt Q96RI1); experiment: qHTS assay to identify small molecule antagonists of the farnesoid-X-receptor (FXR) signaling pathway (AID 743217; active = well fitted inhibition curve with a large enough effect in the signal ratio in the repeat runs, not every such curve was filed as active; inconclusive = weak or mixed curves, or effect the other way; inactive = no such curve, though single readings can be large or run the other way; the % refers to the signal ratio); conditions: HEK293T FXR-UAS-bla, beta-lactamase ratio, CDCA-stimulated, 16 h; activity change, negative = inhibition: at 62.6 µM (top of the series) unless noted
UniProt Q96RI1, sequence (Q96RI1 whole entry, looked up): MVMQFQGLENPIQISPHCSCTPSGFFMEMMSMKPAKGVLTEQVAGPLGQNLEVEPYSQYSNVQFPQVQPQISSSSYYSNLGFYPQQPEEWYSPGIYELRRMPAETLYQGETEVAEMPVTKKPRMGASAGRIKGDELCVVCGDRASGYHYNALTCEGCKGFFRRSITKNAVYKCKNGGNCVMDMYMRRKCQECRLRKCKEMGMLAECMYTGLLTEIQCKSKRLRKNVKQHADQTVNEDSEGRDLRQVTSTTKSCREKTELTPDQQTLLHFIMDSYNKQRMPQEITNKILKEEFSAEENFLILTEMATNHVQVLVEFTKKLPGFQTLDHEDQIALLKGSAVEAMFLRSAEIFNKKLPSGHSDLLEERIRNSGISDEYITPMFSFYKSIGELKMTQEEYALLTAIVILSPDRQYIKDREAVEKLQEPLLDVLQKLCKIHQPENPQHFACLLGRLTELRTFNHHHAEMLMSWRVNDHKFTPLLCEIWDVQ
Outline: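 FXR-UAS-bla HEK 293T cells pre-incubated 5 h at 37 °C, then exposed to compounds with chenodeoxycholic acid (50 uM final) for 16 h at 37 °C. Beta-lactamase reporter read by LiveBLAzer B/G FRET substrate fluorescence after 2 h at room temperature.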

[12] = qHTS assay to identify small molecule agonists of the farnesoid-X-receptor (FXR) signaling pathway - cell viability counter screen (AID 743218); conditions: FXR-bla HEK293T viability, CellTiter-Glo luminescence, 16 h; viability change, negative = cytotoxic: at 62.6 µM (top of the series) unless noted; note: nearly all actives have a fitted effect of over 45% in size
Outline: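 FXR-UAS-bla HEK 293T cells, plated 5 h at 37 C, were exposed to compounds for 16 h at 37 C. CellTiter-Glo was then added to the same wells as the bla readout; luminescence read after 30 min at room temperature.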

[13] = target: Bile acid receptor (Homo sapiens) (UniProt Q96RI1); experiment: qHTS assay to identify small molecule agonists of the farnesoid-X-receptor (FXR) signaling pathway (AID 743220; active = well fitted activation curve with a large enough effect in the signal ratio in the repeat runs, not every such curve was filed as active; inconclusive = weak or mixed curves, or effect the other way; the % refers to the signal ratio); conditions: HEK293T FXR-UAS-bla, beta-lactamase FRET ratio, 16 h; activation: at 62.6 µM (top of the series) unless noted
Outline: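 Beta-lactamase reporter under UAS control in GeneBLAzer FXR HEK 293T cells (5000/well) measured with LiveBLAzer FRET substrate after 2 h at room temperature. Compound exposure lasted 16 h at 37C.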

[14] = target: Vitamin D3 receptor (Homo sapiens) (UniProt P11473); experiment: qHTS assay to identify small molecule agonists of the vitamin D receptor (VDR) signaling pathway (AID 743222; calls by dose curve; for activation: % is set by controls: 0 for no effect and ±100 for the full control effect); conditions: HEK293T VDR-UAS-bla, beta-lactamase FRET ratio, 16 h; activation: at 63.5 µM (top of the series) unless noted
UniProt P11473, sequence (P11473 whole entry, looked up): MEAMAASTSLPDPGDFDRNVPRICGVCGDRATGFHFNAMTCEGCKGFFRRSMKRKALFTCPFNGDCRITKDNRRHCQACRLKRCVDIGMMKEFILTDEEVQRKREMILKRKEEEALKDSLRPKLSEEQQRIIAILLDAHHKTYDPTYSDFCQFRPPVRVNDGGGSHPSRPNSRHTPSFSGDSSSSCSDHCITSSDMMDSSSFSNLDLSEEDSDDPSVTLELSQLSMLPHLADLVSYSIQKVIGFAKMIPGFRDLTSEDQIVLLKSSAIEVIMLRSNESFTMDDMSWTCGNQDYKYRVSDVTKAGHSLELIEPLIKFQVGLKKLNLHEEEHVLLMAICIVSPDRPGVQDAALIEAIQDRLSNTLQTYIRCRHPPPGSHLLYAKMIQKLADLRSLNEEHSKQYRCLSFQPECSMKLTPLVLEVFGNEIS
Outline: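 VDR-bla cells were plated 4 h at 37C/5% CO2, then exposed to compounds in DMSO for 16 h. After LiveBLAzer B/G FRET substrate addition and 2 h at room temperature, beta-lactamase reporter fluorescence was read.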

[15] = target: Vitamin D3 receptor (Homo sapiens) (UniProt P11473); experiment: qHTS assay to identify small molecule antagonists of the vitamin D receptor (VDR) signaling pathway (AID 743223; active = well fitted inhibition curve with a large enough effect in the signal ratio in the repeat runs, not every such curve was filed as active; inconclusive = weak or mixed curves, or effect the other way; inactive = no such curve, though single readings can be large or run the other way; the % refers to the signal ratio); conditions: VDR-UAS-bla HEK293T, beta-lactamase FRET ratio, 16 h; activity change, negative = inhibition: at 61 µM (top of the series) unless noted
Outline: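 Antagonist mode: compound added to VDR-bla cells alongside agonist 1alpha,25-dihydroxyvitamin D3 (3 nM final), incubation 16 h at 37C. Read-out is LiveBLAzer FRET fluorescence, 2 h at room temperature.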

[16] = qHTS assay to identify small molecule agonists of the peroxisome proliferator-activated receptor delta (PPARd) signaling pathway - cell viability counter screen (AID 743211); conditions: PPARd-bla HEK293H viability, CellTiter-Glo luminescence, 17 h; activity change, negative = cytotoxicity: at 62.6 µM (top of the series) unless noted; note: nearly all actives have a fitted effect of over 55% in size
Outline: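 Viability was measured as CellTiter-Glo luminescence (30 min, room temperature) in the same wells as the beta-lactamase readout. GeneBLAzer PPARd UAS-bla HEK293H cells received compound after 5 h plating and were incubated 17 h at 37 C.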

[17] = qHTS assay to identify small molecule antagonists of the peroxisome proliferator-activated receptor delta (PPARd) signaling pathway - cell viability counter screen (AID 743213); conditions: PPARd-bla HEK293H viability, CellTiter-Glo luminescence, 17 h; viability change, negative = cytotoxic: at 62 µM (top of the series) unless noted; note: nearly all actives have a fitted effect of over 50% in size
Outline: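 PPARd-bla HEK293H cells were treated with compounds plus agonist L165041 (300 nM final) for 17 h at 37 C. Viability was then read in the same wells by CellTiter-Glo luminescence after 30 min at room temperature.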

[18] = qHTS assay to identify small molecule antagonists of the farnesoid-X-receptor (FXR) signaling pathway - cell viability counter screen (AID 743221; active = well fitted cell-killing curve with a large enough effect in the repeat runs, not every such curve was filed as active; inconclusive = weak or mixed curves, or effect the other way; inactive = no such curve, though single readings can be large or run the other way; note: nearly all actives have a fitted effect of over 50% in size); conditions: FXR-bla HEK293T viability, CellTiter-Glo luminescence, 16 h; activity change, negative = cytotoxicity: at 62.6 µM (top of the series) unless noted
Outline: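 Cytotoxicity counter screen run in the FXR-bla reporter wells: HEK 293T cells exposed to compound with 50 uM (final) chenodeoxycholic acid for 16 h, 37 C, then viability measured by CellTiter-Glo luminescence after 30 min, room temperature.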

[19] = qHTS assay to identify small molecule agonists of the vitamin D receptor (VDR) signaling pathway - cell viability counter screen (AID 743224); conditions: VDR-bla HEK293T viability, CellTiter-Glo luminescence, 16 h; activity change, negative = cytotoxicity: at 62.6 µM (top of the series); note: nearly all actives have a fitted effect of over 50% in size
Outline: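 VDR-bla cells were preincubated 4 h at 37C/5% CO2, then exposed to compounds for 16 h. After the 2 h room-temperature bla FRET read, CellTiter-Glo was added to the same wells and luminescence read after 30 min.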

[20] = qHTS assay for small molecule activators of the heat shock response signaling pathway (AID 743210; active = well fitted activation curve with a large enough effect in the signal ratio in the repeat runs, with a control signal flat, not every such curve was filed as active; inconclusive = weak or mixed curves; the % refers to the signal ratio); conditions: HeLa HSE-bla reporter, beta-lactamase ratio, 5 h; activation: at 62.6 µM (top of the series) unless noted
Outline: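 Quantitative high-throughput format using an engineered HeLa line in which heat shock response elements drive beta-lactamase; after 5 h with compound, cells received a B/G FRET substrate and fluorescence was read.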
Potency is the fitted concentration of half-maximal effect; tags give direction and shape of the fitted curve or compound fluorescence and quenching.

CC(=O)[C@]1(O)Cc2c(O)c3c(c(O)c2[C@@H](O[C@H]2C[C@H](N)[C@H](O)[C@H](C)O2)C1)C(=O)c1ccccc1C3=O
inactive: Potency [5] | Potency [14]
inconclusive: Potency [1] 1.5 µM [activator, partial curve] | activation [3] -18.5% | Potency [6] 5.96 µM [rising, full curve, poor fit] | Potency [7] 10.6 µM [cytotoxic, partial curve] | Potency [8] 3.35 µM [cytotoxic, full curve] | activation [9] -4.94% | Potency [11] 7.5 µM | Potency [12] 4.22 µM [cytotoxic, full curve] | Potency [13] 2.11 µM [activator, full curve, poor fit]
active: Potency [2] 13.3 µM | Potency [4] 4.22 µM | Potency [10] 3.76 µM | Potency [15] 1.9 µM

CCN(CC)CCOc1ccc(Cc2ccccc2)cc1
inconclusive: Potency [1] 26.6 µM [activator, partial curve] | Potency [2] 18.8 µM [falling, partial curve, poor fit] | Potency [6] 23.7 µM [rising, partial curve, poor fit] | Potency [16] 18.8 µM [cytotoxic, partial curve, poor fit] | Potency [17] 5.96 µM [cytotoxic, full curve, poor fit] | Potency [12] 9.44 µM [cytotoxic, partial curve, poor fit] | Potency [18] 29.8 µM [falling, partial curve, poor fit] | Potency [19] 23.7 µM [cytotoxic, partial curve, poor fit]

COc1cccc2c1C(=O)c1c(O)c3c(c(O)c1C2=O)C[C@@](O)(C(=O)CO)C[C@@H]3O[C@H]1C[C@H](N)[C@H](O[C@@H]2CCCCO2)[C@H](C)O1
inconclusive: Potency [1] 2.37 µM [activator, full curve, poor fit] | Potency [3] 26.8 µM | Potency [4] 5.96 µM [full curve] | Potency [5] 4.22 µM [cytotoxic, full curve] | activation [6] -66.9% | Potency [7] 5.96 µM [cytotoxic, full curve] | Potency [8] 10.6 µM [cytotoxic, partial curve, poor fit] | Potency [10] 7.5 µM [rising, partial curve] | Potency [11] 3.76 µM [inhibitor, partial curve] | Potency [13] 5.31 µM [activator, full curve, poor fit] | Potency [14] 11.9 µM [inhibitor, full curve] | Potency [15] 9.52 µM
active: Potency [2] 6.68 µM
inactive: Potency [16]

Cc1ccc(C(=O)c2cc(O)c(O)c([N+](=O)[O-])c2)cc1
inconclusive: Potency [1] 15 µM [activator, full curve, poor fit] | Potency [2] 61.1 µM [falling, partial curve] | Potency [3] 3.47 µM [rising, full curve, poor fit] | activation [3] -20.1% | Potency [8] 30.9 µM [cytotoxic, partial curve, poor fit] | Potency [16] 21.1 µM [cytotoxic, partial curve, poor fit] | Potency [10] 27.5 µM [fluorescent, partial curve] and 5.31 µM [fluorescent, full curve, poor fit] | Potency [12] 7.5 µM [cytotoxic, single point] | Potency [18] 13.3 µM | Potency [14] 1.38 µM [rising, full curve] and 2.37 µM [rising, full curve] | activity change, negative = inhibition [15] -0.585% | Potency [19] 15.5 µM [cytotoxic, partial curve, poor fit] and 6.68 µM [cytotoxic, full curve]

O=C(Oc1ccccc1)c1cccc(C(=O)Oc2ccccc2)c1
inconclusive: Potency [1] 6.44 µM [activator, partial curve] | activation [3] -15% [at 78.9 µM] | ratio activity, negative = inhibition [4] -47.7% [at 81.1 µM] | Potency [5] 65 µM [cytotoxic, single point] | Potency [6] 57.4 µM [phenotype inactive, partial curve, poor fit] | Potency [7] 25.7 µM [cytotoxic, partial curve, poor fit] | Potency [20] 62.5 µM | Potency [16] 40.7 µM [cytotoxic, partial curve, poor fit] | Potency [9] 11.5 µM [phenotype inactive, full curve, poor fit] | Potency [17] 28.8 µM [cytotoxic, single point] | Potency [10] 0.0082 µM [fluorescent, full curve, poor fit] | Potency [11] 16.3 µM [inhibitor] | Potency [12] 0.231 µM [rising, full curve] | activation [13] 7.81% [at 81.1 µM] | Potency [18] 25.9 µM [phenotype inactive, partial curve, poor fit] | Potency [14] 2.29 µM [rising, partial curve] | activity change, negative = inhibition [15] 5.47% [at 78.8 µM]

Source: PubChem BioAssay (Tox21)
